# The full ranking holds about 33,000 sequences; the median of “E-score (-0.5 to 0.5)” is about -0.036, and the highest 2% start at about 0.37. The list shows a part of the results.
# Biological target: T1, Yer064c (UniProt P40041)
# T1 sequence: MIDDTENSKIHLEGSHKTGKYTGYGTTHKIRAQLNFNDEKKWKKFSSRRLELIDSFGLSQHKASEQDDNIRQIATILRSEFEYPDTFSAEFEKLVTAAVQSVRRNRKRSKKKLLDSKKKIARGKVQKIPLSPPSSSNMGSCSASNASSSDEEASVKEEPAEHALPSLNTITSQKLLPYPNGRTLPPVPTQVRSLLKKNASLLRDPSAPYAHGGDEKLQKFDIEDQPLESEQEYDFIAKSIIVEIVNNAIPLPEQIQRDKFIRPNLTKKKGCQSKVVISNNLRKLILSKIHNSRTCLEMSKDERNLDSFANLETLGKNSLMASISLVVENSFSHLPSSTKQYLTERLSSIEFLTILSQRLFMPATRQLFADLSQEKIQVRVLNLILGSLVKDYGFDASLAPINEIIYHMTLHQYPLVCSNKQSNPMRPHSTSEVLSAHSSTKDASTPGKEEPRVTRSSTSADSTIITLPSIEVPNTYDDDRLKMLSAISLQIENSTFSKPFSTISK
# Test: PBM E-score (8-mer binding enrichment) (E-score (-0.5 to 0.5)); higher = stronger / more preferred TF binding; most listed sequences are background and not binding sites
# Details: protein concentration: 200 nM; construct: GST-full length
# Procedure, shortened: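 Detection of bound protein used fluorescent anti-GST, with scans normalised by masliner. The proteins were GST-tagged yeast transcription factors applied at about 100-200 nM to universal all-10-mer Agilent arrays made double-stranded by primer extension. Each ungapped eight-base word, pooled with its reverse complement, was scored with an E-score from the Universal PBM Analysis Suite.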
row,Sequence,PBM E-score
1,AATACCTC,-0.0149
2,GATCTGCA,0.0135
3,TAATTTAA,0.0979
4,AGAACCAT,0.173
5,CATAGTCC,0.304
6,TCTTCTAA,0.129
7,ACGCAAGC,-0.0709
8,ATGATCAC,0.301
9,ACCCGCAG,0.0055
10,AAACCTAC,-0.174
11,CACCGTGA,0.0835
12,ACGCCGCT,-0.119
13,GGTCATTA,-0.0121
14,AACATATT,-0.0685
15,ACGGAAGT,0.0358
16,CGGATGTC,-0.107
17,ACATCAGG,-0.144
18,CCGTCACC,-0.189
19,ATGCCATA,-0.218
20,AACGTTCT,-0.0715
21,AGAGGGCT,-0.315
22,ATTTAGGG,-0.0441
23,AGGATACT,-0.164
24,ACGCATTA,0.0852
25,AGAATAGA,0.0419

row,Sequence,PBM E-score
1,ACCAGCAT,-0.0398
2,TCAGTTCA,0.0883
3,ATTGTTTG,0.145
4,TGGGCACA,-0.204
5,ATGGGCAA,-0.028
6,AAGGTAAC,-0.0984
7,ACTTGCAA,0.129
8,AACCCTGT,-0.166
9,GTGTGAAC,-0.00276
10,GATTGCTA,0.0989
11,AGCCCTTG,-0.16
12,TAGATCGA,-0.0873
13,GGGAGAAC,-0.314
14,CCGATGGC,-0.113
15,CACTATCC,-0.196
16,AAAAAAGC,0.0629
17,GATCGGCA,-0.311
18,CGCGACCC,-0.0841
19,CAATTCTG,-0.197
20,TGCTAAAA,-0.0598
21,TCGACAGA,-0.0539
22,AATGGTCA,0.137
23,GCTGAATA,0.0545
24,ATAATTTA,0.167
25,AGAAGACT,0.368

row,Sequence,PBM E-score
1,ACGTCCAG,-0.27
2,CATTTGCG,-0.101
3,ATCCCTCA,-0.155
4,AATACTCT,0.0892
5,AGTGCGAA,-0.052
6,CTAGCCAA,0.066
7,CGTACCCA,-0.0505
8,TACGTTAA,-0.103
9,AGAATCTC,-0.0155
10,GTTGGAAA,-0.188
11,ATTACGGC,-0.101
12,GCTCATTA,-0.044
13,GGTATACA,-0.0154
14,CCGGCCCG,-0.131
15,ATAGGAAC,-0.175
16,ATACCTTG,0.1
17,AAACAGAG,-0.00984
18,AGGCATAT,-0.127
19,ACTGCAGG,-0.0274
20,GGGTTCCA,-0.205
21,CTTCAAGC,0.0604
22,GTGCTATA,-0.0444
23,GAGCCCTC,-0.172
24,CAGAGTTA,0.0676
25,CCACCCGA,0.00066

row,Sequence,PBM E-score
1,ACGATTGA,0.216
2,CGACCGTA,-0.147
3,CCCATGGA,0.0553
4,CATTGAAA,0.0309
5,ATTCATGG,0.224
6,AGCTGTAC,-0.207
7,GCCGCTAA,-0.273
8,CGCCAAGA,-0.00635
9,ATACATGA,0.159
10,ACCTGCAA,0.0126
11,CAATTCTA,0.0238
12,AATAGGTA,-0.0576
13,AAGTTCTA,-0.00496
14,CGACCTTA,-0.105
15,CGGTGGCA,-0.281
16,TTATTGAA,0.143
17,AAAACCAT,0.104
18,AGATGTGC,-0.0118
19,AGCACCAG,-0.161
20,GCACCACA,-0.266
21,TAACGAGA,0.00472
22,CCGCCTCC,-0.273
23,AACTTACT,0.12
24,GGAATGCC,-0.278
25,ACGCCAGG,0.0901

row,Sequence,PBM E-score
1,CCGATGTC,-0.0998
2,CAGCTAAC,-0.13
3,TCATCTCA,0.246
4,ATATCTTA,0.0774
5,ACACTGGG,-0.238
6,GCCGGCAA,-0.269
7,ACCTAGGA,0.0485
8,CTATTGTA,0.12
9,AAAGGGAG,-0.123
10,CGCTTGTA,-0.187
11,CTTTGTTC,-0.0786
12,AATACGGA,-0.129
13,GGCGCCTA,-0.151
14,AACGAGAG,-0.0209
15,TAGAGCTA,-0.198
16,ATGGTACG,-0.0676
17,GGTCTCAC,0.0207
18,AAGGGTGT,-0.00845
19,AGATTAAT,0.226
20,CCCACGGA,-0.156
21,ATGCACAC,0.0372
22,AATTCGTG,0.0735
23,CCTTGCTC,-0.154
24,CAAAGCGA,0.0499
25,CATGATAG,0.00532

row,Sequence,PBM E-score
1,CGAACTTC,-0.0141
2,CTAAGCGC,-0.114
3,CAGCCTGC,-0.256
4,AAGGACGG,-0.168
5,ACAAGCAA,0.0262
6,CCGTTCCG,-0.0781
7,CGATGTAC,-0.0701
8,ACCCGCCA,-2e-05
9,AGACCCAG,-0.0607
10,GTCTACAA,0.127
11,ACCCCAGA,-0.0636
12,AGCTGCCG,-0.0915
13,GAATAATC,0.251
14,CTCGGACC,-0.00324
15,CAGATTAA,0.183
16,AACCGTAA,-0.0266
17,GTCTGAAA,-0.00599
18,AAGCCAGG,-0.134
19,ATCCCCGC,-0.112
20,GATTATAC,0.239
21,ATAGGTGA,0.122
22,TGCTGCAA,-0.0967
23,CCGACCAG,-0.261
24,CTACTCGC,0.0327
25,CAGAGCAA,-0.0906

row,Sequence,PBM E-score
1,CCGGAACC,-0.21
2,CTGGTGCA,-0.18
3,TGGCGGAA,-0.313
4,TCCCCCAA,-0.107
5,CTGTGATC,0.0336
6,GGATTTAA,0.0151
7,ACCGGAAA,-0.195
8,AAATCTAT,-0.0116
9,GCCCATAC,-0.0645
10,CTTTAATC,0.29
11,GACTGTCA,0.286
12,CAAGGGAA,-0.0578
13,TATAGCAA,-0.174
14,CAGAAGTC,0.293
15,GTCTTAAA,0.166
16,AGTGAACC,0.0366
17,CACGAAAG,-0.148
18,ACCGCGCC,-0.26
19,CATACGTC,-0.0606
20,CGCCCTAA,-0.114
21,ATAATCTA,0.14
22,GGCGTCCC,-0.329
